# Test results from PubChem BioAssay AID1347120 (National Center for Advancing Translational Sciences (NCATS), 2019).
# Values joined by “and” are separate entries in the source; they are usually repeats but may differ in a detail not shown here. Equal entries are not always repeated. About 930 (0.24%) of roughly 390,000 compounds were called active. This list was built around the results that the source calls inconclusive (neither active nor inactive); the mix of calls is not that of the screen. The call rests on the fitted dose curve; in most records, active means well fitted activation curve with a large enough effect; inconclusive means small, poorly fitted or top-dose-only effect; inactive means no such curve, though single readings can be large or run the other way. Potencies of inconclusive entries are doubtful fits and often do not repeat.
# Test: qHTS for Suppressors of FUS Proteinopathy: Primary screen using FUS-linked yeast assay; further: nearly all actives have a fitted effect of over 55% in size;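 on growth rescue (activation): plate controls were DMSO vehicle for no effect and reference control for full effect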
# Conditions: S. cerevisiae FUS-expressing, OD600, 24 h; Potency: growth rescue; growth rescue (activation): at 76.6 µM (top of the series)
# Method in brief: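 S. cerevisiae expressing FUS from galactose induction served as the toxicity model. Growth after 24hr at 30C, read as absorbance at 600 nm, indicates suppression of toxicity; compounds dosed at several concentrations.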
# Potency means the concentration at half of the fitted maximal effect; tags describe the fitted curve by direction and shape.
Structure (SMILES),growth rescue (activation),Potency
CCOCCCn1c(C)nc2c(c1=O)c1nc3ccccc3nc1n2-c1ccc(C)cc1,inconclusive: 71.3% [activator],
CCOc1ccccc1NC(=S)N(CCCN1CCOCC1)Cc1cn(C)c2ccccc12,,"inconclusive: 8.91 µM [activator, partial curve, poor fit]"
Cc1cc(S(=O)(=O)Nc2ccc(O)c(Sc3nc4ccccc4s3)c2)ccc1Cl,,"inconclusive: 12.6 µM [activator, partial curve, poor fit]"
CC1(C(=O)NS(=O)(=O)c2ccccc2Cl)CCN1C(=O)c1cccc2ccccc12 (configuration not stated),,inactive
CC[C@]12C(=O)N(C)C[C@H]([C@@H]3C(=O)N(Cc4ccccc4)C(=O)[C@@H]31)N2C(=O)c1ccc(C(C)(C)C)cc1,,"inconclusive: 14.1 µM [activator, partial curve]"
C=CCN(c1nc(C)cc(OC)n1)S(=O)(=O)c1ccc(C)cc1,,"inconclusive: 11.2 µM [activator, single point]"
CC(=O)NC1=NN(C(C)=O)C(C)(CS(=O)(=O)c2ccc(Cl)cc2)S1 (configuration not stated),inconclusive: 50.9% [activator],
COc1ccccc1N1CCN(c2nc(C)nc3c2oc2ccccc23)CC1,,"inconclusive: 17.8 µM [activator, partial curve, poor fit]"
CCOC(=O)c1c(NC(=O)CSc2nnc(CNc3ccc(C)cc3C)o2)sc(C)c1C,,"inconclusive: 7.08 µM [activator, partial curve, poor fit]"
NC(=O)CSc1nnc(Cc2csc(Nc3ccc(F)cc3)n2)n1Cc1ccccc1,inconclusive: 67.4% [activator],
Cc1cccc(-c2nnc(SCc3ccccc3)o2)c1,,inactive
Cc1ccc(/C=N/Nc2ccnc3cc(Cl)ccc23)c(C)c1,,"inconclusive: 50.1 µM [activator, single point]"
CCOC(=O)c1ccccc1NC(=O)Cn1ccn2nc(-c3ccc(OCC)cc3)cc2c1=O,,inactive
Cc1ccc(OCCn2cc(/C=N/NC(=O)c3ccncc3)c3ccccc32)cc1,,"inconclusive: 35.5 µM [activator, single point]"
Cc1ccc(CNC(=O)C2CCCN(c3ncnc4onc(-c5ccc(F)cc5)c34)C2)cc1 (configuration not stated),,inactive
Fc1ccc(-c2nn(-c3ccc(Cl)cc3)c3c2cnc2ccc(F)cc23)cc1,,inactive
Cc1ccc(S(=O)(=O)c2nnn3c2nc(N2CCOCC2)c2sccc23)cc1C,,"inconclusive: 39.8 µM [activator, single point]"
COc1ccc(C(=O)Nc2nc3n(n2)C(c2ccc(Cl)cc2)C=C(c2ccccc2)N3)cc1OC (configuration not stated),,"inconclusive: 15.8 µM [activator, partial curve, poor fit]"
Cc1ccc(C)c(CN2C(=O)c3ccccc3S(=O)c3ccc(C(=O)N4CCOCC4)cc32)c1 (configuration not stated),,"inconclusive: 8.91 µM [activator, partial curve]"
O=S(=O)(c1ccccc1)C1CON(Cc2ccccc2)C1c1ccccc1 (configuration not stated),,inactive
Cc1nn(-c2ccccc2)c2sc(C(=O)N3CCN(C(c4ccccc4)c4ccc(Cl)cc4)CC3)cc12 (configuration not stated),,inactive

Structure (SMILES),growth rescue (activation),Potency
C#CCOCCOCCOCCNc1nc(N2CCN(C(=O)[C@H](Cc3ccc(O)cc3)n3cc([C@@H](N)CC(C)C)nn3)CC2)nc(N2CCN(C(=O)[C@H](Cc3cc4ccccc4[nH]3)n3cc([C@@H](N)CC(C)C)nn3)CC2)n1,,"inconclusive: 14.1 µM [activator, partial curve]"
Cc1ccc(-n2ncc(C(=O)NC3CCN(Cc4ccccc4)CC3)c2C2CCN(C(=O)OC(C)(C)C)CC2)cc1C,,"inconclusive: 25.1 µM [activator, single point]"
CC1(C)Cc2c(sc3nc(-c4cccs4)n(N)c(=O)c23)CO1,,inactive
C=CC[C@@H](Cc1ccc(F)cc1)C(=O)OC[C@@H]1CCCN1C(=O)[C@H](CC=C)CC(=O)N(CCO)Cc1ccccc1,,"inconclusive: 39.8 µM [activator, single point]"
O=C(Cc1ccccc1)Nc1cccc(-c2nnc(-c3ccco3)o2)c1,,inactive
O=C(OCc1c(F)cccc1Cl)c1cc([N+](=O)[O-])ccc1N1CCOCC1,,inactive
Cc1ccc(CSC2=Nc3ccccc3C3=NC(CC(=O)NCc4ccc5c(c4)OCO5)C(=O)N23)cc1 (configuration not stated),,"inconclusive: 39.8 µM [activator, single point]"
CCCCN(C)C(=O)c1ccc(Nc2nc(C(N)Cc3ccc(C(F)(F)F)cc3)cs2)nc1 (configuration not stated),,"inconclusive: 25.1 µM [activator, partial curve, poor fit]"
Cn1c(N)c(S(=O)(=O)c2ccc(Br)cc2)c2nc3ccccc3nc21,inconclusive: 79.2% [activator],
Cc1cc(=O)oc2cc(OCC(=O)N3CCN(C(=O)C4COc5ccccc5O4)CC3)ccc12 (configuration not stated),,inactive
CCN(CC)S(=O)(=O)c1ccc2c(c1)c(=O)c(C(=O)N1CCN(c3cccc(Cl)c3)CC1)cn2C,,"inconclusive: 3.55 µM [activator, full curve]"
Cc1ccc(Nc2nnc(SCc3ccccc3)s2)cc1,inconclusive: 58% [activator],
O=C(CSc1nnc(-c2ccco2)o1)c1ccccc1Cl,,active: 22.4 µM
CCc1nc2c(OCc3cc(Cl)cc(Cl)c3)cccn2c1N(C)C(=O)Nc1ccccc1OC,,"inconclusive: 50.1 µM [activator, single point]"
COc1ccc(/C=C/c2nc(-c3ccccc3O)n[nH]2)cc1OC,,"inconclusive: 28.2 µM [activator, single point]"
CCOC(=O)C1=CCN(S(=O)(=O)c2ccc(C)cc2)C1c1ccccc1F (configuration not stated),,"inconclusive: 50.1 µM [activator, single point]"
CSc1ccc(CCNC(=O)c2ccc(-n3c(C)cc4c3CCCC4)cc2)cc1,,inactive
CC(C)Oc1ccc(CSc2nnc3n(C)c(=O)c4c5c(sc4n23)CCCC5)cc1,,"inconclusive: 0.891 µM [activator, full curve, poor fit]"
COc1ccc(/C=C/c2nc(C#N)c(N3CCC(C)CC3)o2)cc1OC,,"inconclusive: 50.1 µM [activator, single point]"
O=C1CS/C(=C\[N+](=O)[O-])N1c1ccccc1,,"inconclusive: 44.7 µM [activator, partial curve, poor fit]"
CCc1ccc2c(c1)NC(c1cccnc1)=NC(c1ccc(C(C)(C)C)cc1)=N2,,"inconclusive: 12.6 µM [activator, single point]"

Structure (SMILES),growth rescue (activation),Potency
Cc1cccc(-c2nc(CSCC(=O)N3CCN(c4cccc(C)c4C)CC3)c(C)o2)c1,,"inconclusive: 25.1 µM [activator, partial curve, poor fit]"
CC(C)(C)c1ccc(OCCC(=O)OCC(=O)N2c3ccccc3NC(=O)C2(C)C)cc1,,"inconclusive: 28.2 µM [activator, single point]"
O=C(CCC(=O)N/N=C/c1c[nH]c2ccccc12)NCc1ccccc1,,"inconclusive: 11.2 µM [activator, single point]"
CC(C)C1N=C2c3ccccc3N=C(SCC#N)N2C1=O (configuration not stated),,inactive
CC(=O)Nc1ccc(S(=O)(=O)N2CCN(CC3CC4C=CC3C4)CC2)cc1 (configuration not stated),,inactive
Cn1cccc1C(=O)N1CCN(S(=O)(=O)c2ccc([N+](=O)[O-])cc2)CC1,,inactive
CCN(CC(=O)Nc1c(F)cccc1F)C(=O)CCc1nc2sc3c(c2c(=O)[nH]1)CCCC3,,"inconclusive: 31.6 µM [activator, partial curve, poor fit]"
COc1cc2[nH]c(C(=O)N3CCc4ccccc4C3)cc2c(OC)c1OC,,inactive
CCN(c1ccccc1)S(=O)(=O)c1ccc(N2CCN(c3ccc(O)cc3)CC2)nc1,,"inconclusive: 44.7 µM [activator, partial curve, poor fit]"
COCCCN=C(c1ccco1)n1c(=S)nc(-c2ccco2)n(CCCOC)c1=S,,active: 28.2 µM
COc1ccc(CCNC(=O)CCCn2nc(C)c3sc4ccccc4c3c2=O)cc1OC,,"inconclusive: 22.4 µM [activator, partial curve]"
O=C(NNS(=O)(=O)c1ccc2ccccc2c1)c1cc(-c2ccccn2)nc2ccccc12,,"inconclusive: 28.2 µM [activator, partial curve, poor fit]"
COc1cccc(C(=O)c2cc3ccc(O)cc3oc2=O)c1,inconclusive: 35.5% [activator],
O=C(c1ccc(OC2CCN(C/C=C/c3ccccc3)CC2)cc1)N1CCCC1,,"inconclusive: 10 µM [activator, partial curve, poor fit]"
CCOC(=O)Cn1nnnc1C(CC)N(Cc1cccs1)Cc1cc2ccc(OC)cc2[nH]c1=O (configuration not stated),,"inconclusive: 50.1 µM [activator, single point]"
Cc1ccc(NC(=O)C(C)c2cccc(C(=O)c3ccccc3)c2)cc1O (configuration not stated),,"inconclusive: 8.91 µM [activator, single point]"
COc1ccc(C2OC(=O)CC2C(=O)NC(C)C)cc1 (configuration not stated),inconclusive: 131% [activator],
COc1ccc(S(=O)(=O)Nc2cccc(-c3ccc(N4CCCCCC4)nn3)c2)c(OC)c1,,"inconclusive: 50.1 µM [activator, single point] and inconclusive: 14.1 µM [activator, partial curve]"
CC1(C(=O)Nc2ncc(Cc3ccc(Br)cc3)s2)Cc2ccccc2C(=O)O1 (configuration not stated),,"inconclusive: 28.2 µM [activator, partial curve]"
Cc1ccc(NC(=O)CN(c2cc(C)cc(C)c2)S(=O)(=O)c2c(C)noc2C)nc1,,"inconclusive: 17.8 µM [activator, single point]"
